The other results are listed elsewhere or left out. No stated cut-off is given here; in the data, active = 3.2 or more and inactive = the rest. Most of these values are background signal.
molecular target: SHP2 C-SH2 domain E139D; test: enrichment score (SH2-bound / input frequency) (ratio); bacterial display of known human phosphotyrosine sites (pTyr-Var adds point mutants) read by sequencing; higher = stronger binding; tyrosines were phosphorylated by kinases first; details: peptide library: pTyr-Var
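Further: displayed peptides selected on beads carrying the immobilized SH2 domain, with library peptides lacking any tyrosine serving as negative controls.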

Binder | enrichment score
STAPSYGNPSS [CD19_Y378_G373S] | inactive: 0.455
MKSIKYMDKEV [CCDC60_Y41_I46V] | inactive: 0.775
ENELTYYCYKK [CD59_Y86_C89Y] | inactive: 0.945
TVFSDYLHPQY [CCPG1_Y569] | inactive: 1.01
AKLKDYFIFNK [CCDC42_Y149_YF] | inactive: 1.69
SRLSAYPALEG [CD5_Y465_H461R] | inactive: 0.642
GEHSIYSTVNN [CD55_Y266_C267S] | inactive: 0.589
VPLLEYFRDIF [CDAN1_Y712_YF] | active: 3.65
ENELTYFCCKK [CD59_Y86_YF] | inactive: 0.566

molecular target: SHP2 C-SH2 domain wild-type; test: as above; details: peptide library: pTyr-Var

Binder | enrichment score
STAPSYGNPSS [CD19_Y378_G373S] | inactive: 0.576
MKSIKYMDKEV [CCDC60_Y41_I46V] | inactive: 0.807
ENELTYYCYKK [CD59_Y86_C89Y] | inactive: 1.17
TVFSDYLHPQY [CCPG1_Y569] | inactive: 0.833
AKLKDYFIFNK [CCDC42_Y149_YF] | inactive: 0.957
SRLSAYPALEG [CD5_Y465_H461R] | inactive: 0.475
GEHSIYSTVNN [CD55_Y266_C267S] | inactive: 0.915
VPLLEYFRDIF [CDAN1_Y712_YF] | inactive: 3.15
ENELTYFCCKK [CD59_Y86_YF] | inactive: 0.525

molecular target: SHP2 N-SH2 domain L43F; test: as above; details: peptide library: pTyr-Var

Binder | enrichment score
STAPSYGNPSS [CD19_Y378_G373S] | inactive: 0.448
MKSIKYMDKEV [CCDC60_Y41_I46V] | inactive: 0.732
ENELTYYCYKK [CD59_Y86_C89Y] | inactive: 0.846
TVFSDYLHPQY [CCPG1_Y569] | inactive: 1
AKLKDYFIFNK [CCDC42_Y149_YF] | inactive: 1.37
SRLSAYPALEG [CD5_Y465_H461R] | inactive: 0.532
GEHSIYSTVNN [CD55_Y266_C267S] | inactive: 0.814
VPLLEYFRDIF [CDAN1_Y712_YF] | active: 3.23
ENELTYFCCKK [CD59_Y86_YF] | inactive: 0.643

molecular target: SHP2 N-SH2 domain T42A; test: as above; details: peptide library: pTyr-Var

Binder | enrichment score
STAPSYGNPSS [CD19_Y378_G373S] | inactive: 0.546
MKSIKYMDKEV [CCDC60_Y41_I46V] | inactive: 0.532
ENELTYYCYKK [CD59_Y86_C89Y] | inactive: 0.737
TVFSDYLHPQY [CCPG1_Y569] | inactive: 0.963
AKLKDYFIFNK [CCDC42_Y149_YF] | inactive: 1.06
SRLSAYPALEG [CD5_Y465_H461R] | inactive: 0.682
GEHSIYSTVNN [CD55_Y266_C267S] | inactive: 0.55
VPLLEYFRDIF [CDAN1_Y712_YF] | inactive: 2.95
ENELTYFCCKK [CD59_Y86_YF] | inactive: 0.635

molecular target: SHP2 N-SH2 domain T52S; test: as above; details: peptide library: pTyr-Var

Binder | enrichment score
STAPSYGNPSS [CD19_Y378_G373S] | inactive: 0.569
MKSIKYMDKEV [CCDC60_Y41_I46V] | inactive: 0.649
ENELTYYCYKK [CD59_Y86_C89Y] | inactive: 0.882
TVFSDYLHPQY [CCPG1_Y569] | inactive: 1
AKLKDYFIFNK [CCDC42_Y149_YF] | inactive: 1.07
SRLSAYPALEG [CD5_Y465_H461R] | inactive: 0.589
GEHSIYSTVNN [CD55_Y266_C267S] | inactive: 0.669
VPLLEYFRDIF [CDAN1_Y712_YF] | inactive: 3.1
ENELTYFCCKK [CD59_Y86_YF] | inactive: 0.644

molecular target: SHP2 N-SH2 domain wild-type; test: as above; details: peptide library: pTyr-Var

Binder | enrichment score
STAPSYGNPSS [CD19_Y378_G373S] | inactive: 0.333
MKSIKYMDKEV [CCDC60_Y41_I46V] | inactive: 0.659
ENELTYYCYKK [CD59_Y86_C89Y] | inactive: 1.19
TVFSDYLHPQY [CCPG1_Y569] | inactive: 1.35
AKLKDYFIFNK [CCDC42_Y149_YF] | inactive: 1.18
SRLSAYPALEG [CD5_Y465_H461R] | inactive: 0.752
GEHSIYSTVNN [CD55_Y266_C267S] | inactive: 0.935
VPLLEYFRDIF [CDAN1_Y712_YF] | active: 3.62
ENELTYFCCKK [CD59_Y86_YF] | inactive: 0.745

— the supplement of paper PMC10369915
